Assay [1] concerns Corneal endothelial cells. The assay is described as follows: f-actin labelling with rhodamine labelled phallacidin in cultured corneal endothelial cells. The settings on record: 1 week culture; control shows circumferential bands of f-actin. An excerpt:
Widely separated cables of somewhat smaller diameter were also seen within the cytoplasm of these cells.

Assay [2] relates to Corneal endothelial cells. Briefly: Transmission electron microscopy of pharmacologically modulated endothelial phenotypes. Particulars: cultured cells.

With `CCCCC[C@H](O)/C=C/[C@H]1[C@H](O)CC(=O)[C@@H]1C/C=C\CCCC(=O)O` [PGE2, prostaglandin E2], the f-actin staining pattern result in assay [1] is “circumferential actin bands and discrete cytoplasmic fibers were apparent”.

Take `COc1ccc2c(c1)c(CC(=O)O)c(C)n2C(=O)c1ccc(Cl)cc1` [indomethacin]: in assay [2], the “ultrastructure by transmission electron microscopy” value was “extensive cytoplasmic overlap and close ajunctional apposition of the membranes of adjacent cells”. Consider epidermal growth factor [EGF], for which, in assay [1], the f-actin staining pattern result is reported as “actin fibers throughout the cytoplasm running roughly parallel to the long axis of the cell”.

(Values after patent publication US5032575A, “Method for enhancing healing of corneal endothelial wounds” (Eye Research Institute of Retina Foundation, Inc., priority 1989, dated 1991).)
